The source of these data is the supplement of paper PMC9446081.

Screen size: about 39,000 compounds; about 220 (0.56%) showed activity. The list shows a part of the results.
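Note: static incubation at 37 °C against the wild-type strain, values averaged over two biological replicates.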

This assay deals with Escherichia coli K-12 BW25113. Put plainly: relative growth (OD600 normalised to plate interquartile mean) (fraction); higher = less growth inhibition, active = 0.2 or less. Particulars: 50 µM; LB; incubation time: overnight (16-24 h).
Consider `C[C@H](CO)N1C[C@H](C)[C@H](CN(C)C(=O)Nc2ccc(F)cc2)Oc2c(NC(=O)c3ccc(-c4nccs4)cc3)cccc2C1=O`, for which the relative growth was inactive: 1. On to `Cc1noc(C)c1NC(=O)N(C)C[C@@H]1Oc2ccc(NS(=O)(=O)c3ccccc3)cc2CC(=O)N([C@H](C)CO)C[C@@H]1C`, for which the relative growth was inactive: 0.856. The same measure for `C[C@@H]1CN([C@@H](C)CO)C(=O)Cc2cc(NC(=O)c3ccncc3)ccc2O[C@@H]1CN(C)S(=O)(=O)c1ccccc1`: inactive: 1.01; for `Cc1noc(C)c1S(=O)(=O)Nc1ccc2c(c1)C(=O)N([C@@H](C)CO)C[C@@H](C)[C@@H](CN(C)Cc1ccccc1)OCCCC[C@H](C)O2`: inactive: 0.985. Take `COc1ccc(S(=O)(=O)N(C)C[C@@H]2OCc3cn(nn3)CCCC(=O)N([C@@H](C)CO)C[C@@H]2C)cc1`: the relative growth is inactive: 1. The same measure for `CCCC#Cc1ccc2c(c1)O[C@H](CN(C)C(=O)c1cnccn1)[C@H](C)CN([C@@H](C)CO)S2(=O)=O`: inactive: 0.99; for `Nc1ccc(-c2nn[nH]n2)cc1F`: inactive: 1.02. Turning to `CCOC(=O)N(C)C[C@@H]1OCc2cn(nn2)CCCC(=O)N([C@@H](C)CO)C[C@@H]1C`, the relative growth is inactive: 1.01.

Regarding `C[C@@H]1CN([C@@H](C)CO)C(=O)Cc2cc(NS(C)(=O)=O)ccc2O[C@@H]1CN(C)S(=O)(=O)c1cn(C)cn1`, the relative growth is inactive: 0.987.

On to `CC(C)N1CC=C[C@@]23O[C@@H]4/C=C\CCCOC(=O)[C@@H]4[C@H]2C(=O)N(CCCO)[C@@H]3C1=O`, for which the relative growth is inactive: 0.971.

`Cc1noc(C)c1NC(=O)Nc1ccc2c(c1)C(=O)N([C@H](C)CO)C[C@H](C)[C@@H](CN(C)S(=O)(=O)c1ccccc1)O2`: the relative growth was inactive: 0.999. Consider `CC(=O)Nc1ccc(S(=O)(=O)CCO)cc1`, for which the relative growth was inactive: 1. The same measure for `CN1C(=O)c2cc(NC(=O)c3cnccn3)ccc2OC[C@H]2O[C@@H](CC(=O)N[C@H]3CCN(Cc4ccccc4)C3)CC[C@H]21`: inactive: 0.983; for `C[C@@H]1CN([C@H](C)CO)C(=O)c2cc(NC(=O)CCC(F)(F)F)ccc2O[C@@H](C)CCCCO[C@@H]1CN(C)S(=O)(=O)c1ccc(F)cc1`: inactive: 0.982; for `Cc1ccc(S(=O)(=O)Nc2ccc3c(c2)CC(=O)N([C@@H](C)CO)C[C@H](C)[C@H](CN(C)S(=O)(=O)c2ccccc2)O3)cc1`: inactive: 0.999. Turning to `C/C=C/c1ccc2c(c1)O[C@H](CN(C)S(=O)(=O)c1ccccc1)[C@H](C)CN([C@@H](C)CO)S2(=O)=O`, the relative growth is inactive: 1.04. As for `Cc1noc(C)c1S(=O)(=O)Nc1ccc2c(c1)C(=O)N([C@@H](C)CO)C[C@@H](C)[C@@H](CN(C)S(=O)(=O)c1cn(C)cn1)O2`, the relative growth is inactive: 1.02. Take `NCC[C@H]1CC[C@@H](NC(=O)C2CCCCC2)[C@@H](CO)O1`: the relative growth was inactive: 0.986.

With `Nc1cnccn1`, the relative growth was inactive: 1.01. As to `C[C@@H]1CN([C@@H](C)CO)C(=O)c2cc(C#CCN(C)C)cnc2O[C@H]1CN(C)S(C)(=O)=O`, the relative growth is inactive: 0.982. As to `Cc1ccc(C=Nn2nnnc2N)s1`, the relative growth is inactive: 0.963. Under `COc1ccc(S(=O)(=O)Nc2ccc3c(c2)C(=O)N([C@@H](C)CO)C[C@@H](C)[C@H](CN(C)Cc2ccc4c(c2)OCO4)OCCCC[C@@H](C)O3)cc1` stands inactive: 1.01; under `C[C@@H]1CN([C@@H](C)CO)C(=O)c2cc(NS(=O)(=O)c3cccs3)ccc2O[C@H]1CN(C)S(=O)(=O)c1ccccc1`, inactive: 0.993. For the molecule `C[C@@H]1CN([C@H](C)CO)C(=O)Cc2cc(NC(=O)Nc3ccc(C(F)(F)F)cc3)ccc2O[C@@H]1CN(C)C(=O)NC1CCCCC1`, the relative growth is inactive: 1.02. Consider `C[C@@H]1CN([C@@H](C)CO)C(=O)c2cccc(NC(=O)CCCCCC(=O)Nc3ccccc3N)c2O[C@H]1CN(C)C(=O)Nc1ccc(C(F)(F)F)cc1`, for which the relative growth was inactive: 1.

`COc1ccc(COC[C@]23N=C4SCCCN4[C@H](c4ccccc4O2)[C@H]3COC(=O)c2ccccc2)cc1`: the relative growth was inactive: 1. Consider `COc1ccc(CN(C)C[C@H]2Oc3ccc(NS(=O)(=O)c4c(C)noc4C)cc3C(=O)N([C@H](C)CO)C[C@H]2C)cc1`, for which the relative growth was inactive: 0.982. Under `NC(=O)c1cccc(CN2CCOCC2)c1` stands inactive: 0.999; under `COc1ccc(NC(=O)Nc2ccc3c(c2)[C@@H]2C[C@@H](CC(=O)NCC(F)(F)F)O[C@@H](CO)[C@@H]2O3)cc1`, inactive: 0.978; under `C[C@@H]1CN([C@@H](C)CO)C(=O)c2cc(NC(=O)Nc3ccccc3)ccc2O[C@@H](C)CCCCO[C@H]1CN(C)Cc1ccc(C(=O)O)cc1`, inactive: 1.02. Under `COc1ccc2cc1Oc1ccc(cc1)C[C@H]1c3cc(c(OC)cc3CCN1C)Oc1c(OC)c(OC)cc3c1[C@H](C2)N(C)CC3` stands inactive: 1.03. Regarding `C[C@H]1CCCn2nncc2COCCNC1=O`, the relative growth was inactive: 1.02. With `COc1ccc(S(=O)(=O)Nc2ccc3c(c2)C(=O)N([C@@H](C)CO)C[C@@H](C)[C@@H](CN(C)S(=O)(=O)c2cn(C)cn2)OCCCC[C@H](C)O3)cc1`, the relative growth is inactive: 1.01.

`Cc1noc(C)c1S(=O)(=O)Nc1ccc2c(c1)C(=O)N([C@@H](C)CO)C[C@@H](C)[C@H](CN(C)C)OCCCC[C@@H](C)O2`: the relative growth is inactive: 1.01.

With `CC(C)NC(=O)Nc1cccc2c1O[C@H](CN(C)S(=O)(=O)c1cccs1)[C@H](C)CN([C@H](C)CO)C2=O`, the relative growth was inactive: 0.997. Regarding `Cc1cccc(CN2CCN(C(c3ccccc3)c3ccc(Cl)cc3)CC2)c1.Cl.Cl` (stereo unspecified), the relative growth was inactive: 0.969. Consider `CC(C)OC(=O)[C@H](C)N[P@](=O)(OC[C@H]1O[C@@H](n2ccc(=O)[nH]c2=O)[C@](C)(Cl)[C@@H]1O)Oc1ccccc1`, for which the relative growth was inactive: 0.995. The same measure for `C[C@H]1CN([C@@H](C)CO)C(=O)c2cc(NC(=O)Nc3cccc4ccccc34)ccc2O[C@@H]1CN(C)S(=O)(=O)c1ccc(F)cc1`: inactive: 1.04; for `COc1cc2c(cc1OC)CN(C(=O)[C@@H]1[C@H]3C(=O)O[C@H](c4ccccc4)[C@H](c4ccccc4)N3[C@H](c3ccc(O)cc3)[C@@]13C(=O)Nc1ccc(C#CC4(O)CCCCCC4)cc13)CC2`: inactive: 1.02; for `O=C(O)[C@@H]1[C@@H](CO)[C@@H]2Cn3c(ccc(-c4cncnc4)c3=O)[C@@H]2N1C(=O)C1CCC1`: inactive: 1. The same measure for `C[C@H]1CN([C@@H](C)CO)C(=O)Cc2cc(NC(=O)c3ccncc3)ccc2O[C@@H]1CN(C)Cc1ccc(-c2ccccc2)cc1`: inactive: 1; for `C[C@@H]1CCCCO[C@@H](CN(C)S(=O)(=O)c2cn(C)cn2)[C@H](C)CN([C@H](C)CO)C(=O)c2cc(NC(=O)Nc3cccc4ccccc34)ccc2O1`: inactive: 1.01. On to `C[C@@H]1CN([C@H](C)CO)C(=O)c2cccc(NC(=O)c3nc4ccccc4s3)c2O[C@@H]1CN(C)Cc1ccc(Cl)c(Cl)c1`, for which the relative growth was inactive: 1.03. Under `CCS(=O)(=O)N1C[C@]2(CCN(CC2)C(=O)c2cccnc2)c2c(n(c3cc(ccc23)OC)C)[C@H]1CO` stands inactive: 0.993. `C[C@@H]1CCCCO[C@H](CN(C)S(=O)(=O)c2ccccc2)[C@H](C)CN([C@H](C)CO)C(=O)c2cc(NS(=O)(=O)c3cn(C)cn3)ccc2O1`: the relative growth is inactive: 1.

Regarding `C[C@@H]1CN([C@@H](C)CO)C(=O)c2cccc(NC(=O)c3ccc(-c4nccs4)cc3)c2O[C@@H]1CN(C)Cc1ccc2c(c1)OCO2`, the relative growth was inactive: 1.04.

With `C[C@H]1CN([C@@H](C)CO)C(=O)c2cccc(NC(=O)c3cnccn3)c2O[C@H]1CN(C)C(=O)Nc1ccc(F)cc1`, the relative growth is inactive: 1.03.

On to `CCCC(=O)Nc1ccc2c(c1)C(=O)N(C)[C@@H]1CC[C@H](CC(=O)NCCN3CCCCC3)O[C@H]1CO2`, for which the relative growth is inactive: 0.974. Turning to `CO/N=[N+](\[O-])N1CCC[C@H](C(N)=O)C1`, the relative growth is inactive: 0.945. As to `COc1ccc(S(=O)(=O)Nc2ccc3c(c2)CC(=O)N([C@@H](C)CO)C[C@H](C)[C@H](CN(C)S(=O)(=O)c2cccs2)O3)cc1`, the relative growth was inactive: 0.996. Regarding `CCN(CC)c1ccc(N2CC=C[C@@]34O[C@@H]5C=CCCOC(=O)[C@@H]5[C@H]3C(=O)N(CCCO)[C@@H]4C2=O)cc1`, the relative growth was inactive: 0.98.

As to `Cc1noc(C)c1NC(=O)Nc1ccc2c(c1)C(=O)N([C@H](C)CO)C[C@@H](C)[C@@H](CN(C)S(C)(=O)=O)O2`, the relative growth was inactive: 0.995. In the case of `O=C(O)c1ccc(CCO)s1`, the relative growth was inactive: 1.01.

On to `CC1(C)CC(/C=C/c2ccccc2)=Nc2ccccc2N1`, for which the relative growth was inactive: 1.03.

In the case of `COCC#Cc1ccc2c(c1)O[C@H](CN(C)Cc1ccc3c(c1)OCO3)[C@@H](C)CN([C@@H](C)CO)S2(=O)=O`, the relative growth is inactive: 1.02. Under `CO[C@@H]1CN(C)C(=O)c2cc(NS(=O)(=O)c3ccccc3)ccc2OC[C@H](C)N(C(=O)NC(C)C)C[C@H]1C` stands inactive: 1; under `C[C@@H]1CCCCO[C@@H](CN(C)Cc2ccc3c(c2)OCO3)[C@H](C)CN([C@@H](C)CO)C(=O)c2cc(NC(=O)NC3CCCCC3)ccc2O1`, inactive: 0.973. The same measure for `COC(=O)C[C@H]1C=C[C@H](N)[C@H](CO)O1`: inactive: 0.979; for `C[C@@H]1CN([C@H](C)CO)C(=O)c2cc(NC(=O)c3ccccc3)ccc2O[C@@H](C)CCCCO[C@H]1CN(C)C(=O)Nc1cccc2ccccc12`: inactive: 1.07. The same measure for `O=C1C[C@@](C(=O)NCc2ccccc2)(c2ccc([N+](=O)[O-])cc2)[C@@H](c2ccc(CO)cc2)N1CC12CC3CC(CC(C3)C1)C2`: inactive: 1.02. With `C[C@H](CO)N1C[C@H](C)[C@H](CN(C)C(=O)Nc2ccc(C(F)(F)F)cc2)Oc2ccc(NC(=O)NC3CCCCC3)cc2CC1=O`, the relative growth is inactive: 1.03.
